For orientation: % Inhibition means the relative decrease from the control value, in per cent.

Structures are written as SMILES. Among all 150,000 compounds or so, about 540 (0.36%) showed an effect of 50% or more. Some of the results follow.

The subject of the experiment is Plasmodium falciparum. Briefly: Primary screen in NF54 nanoGlo assay, in single point, at 2uM, 72h; a lower Z score goes with more inhibition. Particulars: timepoint 72 hour. It counts as functional, Erythrocyte.
For the compound `CC(C)(CNC(=O)NCCS(C)(=O)=O)Cc1cccc(Cl)c1`, the “% Inhibition” value is listed as -11% and the Z score is given as 1.22.
The matching figures for `CCC1(CC)CNC(=O)[C@H]1NC(=O)c1cc(-c2ccncc2)nn1C`: -15% and 3.2.
In the case of `CC(C)C(=O)N1CC(n2ccnc2C(C)C)C1`, the “% Inhibition” value was -6% and the Z score amounted to 0.71.
In the case of `c1csc(-c2cn(Cc3csc(N4CCCC4)n3)nn2)n1`, the “% Inhibition” value came to 4% and the Z score was -0.75.
For `O=C(NC1CCCC1)N1CCC2(CC1)C[C@@H](OCc1ccccc1)CCO2`, the “% Inhibition” value is 36% and the Z score was -0.92.
For the compound `CC(C)N(C)C(=O)Cn1c(-c2ccco2)nn(-c2ccc(Cl)cc2)c1=O`, the “% Inhibition” value is -3% and the Z score came out at 0.51.
In the case of `Cc1ccc([C@H]2CC(=O)Nc3c2c(C2CC2)nn3C)c(C)c1F`, the “% Inhibition” value is 4% and the Z score is given as -0.63.
Consider `C1=CCC(COc2nccn3nccc23)C1`, for which the “% Inhibition” value is reported as -1% and the Z score is recorded as 0.12.
With `CC1CCN(C(=O)c2csc(S(=O)(=O)N3CCc4ccccc4C3)c2)CC1`, the “% Inhibition” value is on record as -8% and the Z score amounted to 0.81.
In the case of `Cc1cc2ncn(CC3CCN(C(=O)CN4C(=O)CCC4=O)CC3)c2cc1C`, the “% Inhibition” value was found to be 12% and the Z score was -1.33.
As to `CC(C)[C@H]1COC(=O)N1Cc1ccc(OC(F)F)cc1`, the “% Inhibition” value is -9% and the Z score turned out to be 1.61.
Regarding `Cc1nc2c(N(C)Cc3noc4c3CCCC4)ncnc2o1`, the “% Inhibition” value was -9% and the Z score is 1.44.
In the same order, the values of `CCCc1cc(CNS(=O)(=O)c2cnn(C)c2C)on1` are 4% and -0.54.
On to `Cc1cc(NC(=O)c2ccc(F)cc2Cl)sc1C(=O)N(C)c1ccccc1`, for which the “% Inhibition” value came to 5% and the Z score is -0.96.
`Cc1cc(NC(=O)c2nnn(-c3ccc(F)c(Cl)c3)c2C)n2ncnc2n1`: the “% Inhibition” value turned out to be 32% and the Z score is -3.51.
As to `Cc1cc(=O)c(C(=O)N[C@H](c2cc3ccccc3o2)C2CC2)c[nH]1`, the “% Inhibition” value came to 1% and the Z score is given as -0.1.
As for `CN(CC1CCOCC1)C(=O)CCCc1ccccc1`, the “% Inhibition” value is given as -7% and the Z score stood at 1.06.
The matching figures for `O=C(c1ccoc1)N1CCC2(CC1)C[C@@H](N1CCN(c3ccccn3)CC1)CCO2`: -10% and 1.87.
Turning to `Cc1c(CNc2cnccc2CO)cnn1C`, the “% Inhibition” value is listed as -11% and the Z score amounted to 1.71.
The matching figures for `CCCCOC(=O)N1CCC(c2nnc(CN3CCOCC3)n2C)CC1`: -14% and 1.73.
For `CCN1C(=O)CCN(S(=O)(=O)c2ccccc2C)CC12CCOCC2`, the “% Inhibition” value was -1% and the Z score is recorded as 0.14.
In the same order, the values of `Cc1nc(NCc2ccc3c(c2)OCCO3)sc1-c1ccn(CCc2cccs2)n1` are -3% and 0.45.
The matching figures for `Cc1ccc(C(=O)N2CCC[C@H](c3cc4n(n3)CCCNC4=O)C2)c(O)n1`: -11% and 2.06.
Consider `Cc1ccc2ncccc2c1-c1ccc(=O)n(C)n1`, for which the “% Inhibition” value is -10% and the Z score is 1.47.
For the compound `CCOC(=O)[C@H]1CCCN(C(=O)CN(C)c2nc(C)cc(C)n2)C1`, the “% Inhibition” value is -11% and the Z score was 1.41.
On to `Cc1cc(C(=O)Nc2cccc(S(=O)(=O)N3CCOCC3)c2)cs1`, for which the “% Inhibition” value is on record as -18% and the Z score stood at 2.53.
As to `CC(C)CN(Cc1cccc(OS(=O)(=O)C(C)C)c1)C(=O)NC(C)(C)C`, the “% Inhibition” value is reported as -3% and the Z score stood at 0.41.
Take `CC(=Cc1ccc(OC(C)C)cc1)c1cnccn1`: the “% Inhibition” value is recorded as -8% and the Z score is listed as 0.88.
`COc1cc(NC(=O)c2cccnc2)c(OC)cc1NC(=O)c1cccnc1`: the “% Inhibition” value is given as -14% and the Z score was found to be 2.2.
Consider `CN(Cc1ccc(CN2CCCC2)s1)Cc1nccn1C`, for which the “% Inhibition” value is recorded as -11% and the Z score worked out at 1.04.
Turning to `CC1CCN([C@@H](CNC(=O)N2CCOCC2)c2cccs2)CC1`, the “% Inhibition” value is recorded as -7% and the Z score is given as 1.36.
In the case of `CN=C(NCc1cccc(N(C)C)c1)N[C@@H](C)COC`, the “% Inhibition” value is -12% and the Z score is on record as 1.03.
`Cc1cccc(CC(CNC(=O)C2CC=CCC2)C(=O)O)c1` (stereo not given): the “% Inhibition” value was found to be 1% and the Z score is reported as -0.1.
For the compound `Cc1cc(N2CCC[C@H](S(C)(=O)=O)CC2)ncc1Br`, the “% Inhibition” value is reported as -9% and the Z score stood at 0.95.
For `CC(C)N(C(=O)c1cnc(-c2ccsc2)s1)c1cccnc1`, the “% Inhibition” value is -4% and the Z score is recorded as 0.69.
Take `CC[C@H](C)N(Cc1ccc(OC)c(OS(=O)(=O)c2ccc(F)cc2)c1)C(=O)Nc1cccc(C)c1`: the “% Inhibition” value is listed as 3% and the Z score was -0.5.
Consider `O=C(NC1CCC(CC2CCC(NC(=O)C(F)(F)F)CC2)CC1)C(F)(F)F` (stereo not given), for which the “% Inhibition” value was -6% and the Z score is listed as 0.88.
Regarding `CC(C)c1noc(-c2ccnc(NC[C@H](O)COc3ccc(F)c(F)c3)c2)n1`, the “% Inhibition” value is recorded as -13% and the Z score turned out to be 1.61.
In the same order, the values of `COc1ccccc1CNS(=O)(=O)c1cc(-c2n[nH]c(=O)c3c2CCCC3)ccc1C` are -19% and 1.65.
Regarding `O=C(C1CCC1)N1CC(Oc2ccccc2-c2nc(C3CC3)no2)C1`, the “% Inhibition” value is recorded as -13% and the Z score was 1.49.
Take `O=C(NCCN1CCOCC1)[C@@H]1CCN(c2ccc(Cl)cc2F)C1=O`: the “% Inhibition” value stood at 8% and the Z score was -1.03.
On to `O=C(Nc1ccc2ccccc2c1)N1CCC(n2cc(-c3cccnc3)nn2)CC1`, for which the “% Inhibition” value is reported as 15% and the Z score is reported as -1.9.
Consider `C[C@@H](CN1CCCCC1)NC(=O)c1nc(C2CC2)nn1C`, for which the “% Inhibition” value is -5% and the Z score stood at 0.46.
The matching figures for `COc1ccc(C(=O)NC2CCN(c3cnn(C)c(=O)c3)CC2)c(OC)c1`: 4% and -0.86.
The matching figures for `COCCn1nnc2c1CCN(c1nc(C)c(CC(C)C)c(C)n1)C2`: -5% and 0.64.
In the case of `COC(C)(C)CNC(=O)Cc1cc(C)on1`, the “% Inhibition” value is recorded as -9% and the Z score was 1.39.
With `CC(C)(O)CCNCc1ccc(Br)o1`, the “% Inhibition” value is given as 12% and the Z score was -1.76.
On to `CN(CC1(CO)CCC1)c1nccc(C2CCCC2)n1`, for which the “% Inhibition” value was -16% and the Z score amounted to 1.58.
With `Cc1ocnc1C(=O)N1C[C@@H]2CC[C@H]1CN(Cc1cscn1)C2`, the “% Inhibition” value is on record as -15% and the Z score turned out to be 2.12.
Take `Cn1cnnc1[C@H]1CCCN(c2ncccn2)C1`: the “% Inhibition” value is -10% and the Z score was 1.28.
For the compound `COc1ccc(Cl)cc1NC(=O)[C@H](C)Oc1ccc(NC(=O)c2ccccc2OC)cc1`, the “% Inhibition” value is -1% and the Z score came to 0.17.
In the same order, the values of `NS(=O)(=O)c1cnn(C2CCCC2)c1` are -9% and 0.82.
The matching figures for `CCC(=O)N(CCCOC)Cc1c(-c2ccccc2)noc1N1CCCC[C@@H]1C`: -6% and 0.75.
Take `CC1CCCC(NC(=O)Cc2c(F)c(F)c(F)c(F)c2F)C1C` (stereo not given): the “% Inhibition” value worked out at 3% and the Z score is listed as -0.49.
Turning to `CC(C)(C)OC(=O)N[C@@H]1CCN(C2CCC(C(=O)OC(C)(C)C)CC2)C1` (stereo not given in full), the “% Inhibition” value came out at 0% and the Z score amounted to 0.04.
